These results are taken from publication PMC9103030.

Results are given in words; binding and its absence hold for the method and conditions named. Some binding calls cover weakened binding; strength is not graded here.

Assay in all cases: two-hybrid; each of 13 full-length OsJAZs as BD (bait, left column) and AD (prey, top row) fusion; yeast Y2HGold; growth on SD/-Leu/-Trp/-His/-Ade; graded strong (++), weak (+), undetectable (-)
The target in one assay is T1, OsJAZ4 (rice) (UniProt Q6ES51).
T1 sequence: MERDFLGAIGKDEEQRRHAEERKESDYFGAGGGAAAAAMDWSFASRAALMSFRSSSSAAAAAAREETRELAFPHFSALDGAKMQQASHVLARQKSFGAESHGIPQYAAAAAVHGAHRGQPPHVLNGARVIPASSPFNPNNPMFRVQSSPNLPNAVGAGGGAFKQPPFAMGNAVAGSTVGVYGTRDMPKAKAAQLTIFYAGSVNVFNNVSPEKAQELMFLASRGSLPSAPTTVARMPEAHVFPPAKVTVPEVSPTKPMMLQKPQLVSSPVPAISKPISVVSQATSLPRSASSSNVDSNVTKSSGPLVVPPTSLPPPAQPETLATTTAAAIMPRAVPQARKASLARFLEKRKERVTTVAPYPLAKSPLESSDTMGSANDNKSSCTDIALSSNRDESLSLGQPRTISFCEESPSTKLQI

Another assay deals with T2, OsJAZ12 (rice) (UniProt Q7XEZ1).
T2 sequence: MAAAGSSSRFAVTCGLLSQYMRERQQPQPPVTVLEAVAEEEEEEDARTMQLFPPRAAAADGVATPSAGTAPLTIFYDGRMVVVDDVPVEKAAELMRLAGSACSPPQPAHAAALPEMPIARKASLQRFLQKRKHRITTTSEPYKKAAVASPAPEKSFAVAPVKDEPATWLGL

The next assay deals with T3, OsJAZ1 (rice) (UniProt Q7XPM8).
T3 sequence: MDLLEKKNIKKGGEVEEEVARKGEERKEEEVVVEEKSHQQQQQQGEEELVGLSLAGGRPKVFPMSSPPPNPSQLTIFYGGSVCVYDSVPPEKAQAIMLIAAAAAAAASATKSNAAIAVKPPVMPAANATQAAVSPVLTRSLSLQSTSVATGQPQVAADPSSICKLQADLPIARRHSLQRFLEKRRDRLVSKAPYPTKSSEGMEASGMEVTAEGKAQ

The target in a further assay is T4, OsJAZ3 (rice) (UniProt Q6ZJU3).
T4 sequence: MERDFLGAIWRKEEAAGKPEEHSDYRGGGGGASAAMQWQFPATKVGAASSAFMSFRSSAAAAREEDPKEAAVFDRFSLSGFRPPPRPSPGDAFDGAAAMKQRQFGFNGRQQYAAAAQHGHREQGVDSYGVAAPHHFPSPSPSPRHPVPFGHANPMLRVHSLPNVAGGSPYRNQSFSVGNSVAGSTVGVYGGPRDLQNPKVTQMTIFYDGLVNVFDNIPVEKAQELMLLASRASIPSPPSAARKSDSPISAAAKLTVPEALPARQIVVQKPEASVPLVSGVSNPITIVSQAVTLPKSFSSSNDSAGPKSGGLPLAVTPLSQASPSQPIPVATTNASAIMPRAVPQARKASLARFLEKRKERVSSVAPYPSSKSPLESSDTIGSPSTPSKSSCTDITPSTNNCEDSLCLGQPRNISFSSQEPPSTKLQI

The target in another assay is T5, OsJAZ5 (rice) (UniProt Q7XV97).
T5 sequence: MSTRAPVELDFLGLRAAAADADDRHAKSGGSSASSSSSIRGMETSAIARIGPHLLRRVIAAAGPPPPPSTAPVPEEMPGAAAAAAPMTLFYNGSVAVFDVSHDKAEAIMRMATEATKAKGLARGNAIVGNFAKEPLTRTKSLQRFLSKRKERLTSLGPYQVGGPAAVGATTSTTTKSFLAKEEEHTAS

The target of another assay is T6, OsJAZ8 (rice) (UniProt Q69P94).
T6 sequence: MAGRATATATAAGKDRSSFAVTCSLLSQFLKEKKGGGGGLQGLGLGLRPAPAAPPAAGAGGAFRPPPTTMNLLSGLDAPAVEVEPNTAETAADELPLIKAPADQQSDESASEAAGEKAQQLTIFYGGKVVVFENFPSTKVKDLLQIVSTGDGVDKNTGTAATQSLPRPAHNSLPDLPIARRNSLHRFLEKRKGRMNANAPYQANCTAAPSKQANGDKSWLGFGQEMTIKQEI

Another assay concerns the target T7, OsJAZ7 (rice) (UniProt Q8H395).
T7 sequence: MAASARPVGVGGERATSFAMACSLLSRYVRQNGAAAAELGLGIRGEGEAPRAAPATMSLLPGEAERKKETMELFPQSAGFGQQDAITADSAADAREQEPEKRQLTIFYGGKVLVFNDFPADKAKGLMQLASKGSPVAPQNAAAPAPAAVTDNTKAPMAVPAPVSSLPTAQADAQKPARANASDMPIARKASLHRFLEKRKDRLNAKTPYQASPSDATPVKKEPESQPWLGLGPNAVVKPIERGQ

Another assay deals with T8, OsJAZ6 (rice) (UniProt Q84R94).
T8 sequence: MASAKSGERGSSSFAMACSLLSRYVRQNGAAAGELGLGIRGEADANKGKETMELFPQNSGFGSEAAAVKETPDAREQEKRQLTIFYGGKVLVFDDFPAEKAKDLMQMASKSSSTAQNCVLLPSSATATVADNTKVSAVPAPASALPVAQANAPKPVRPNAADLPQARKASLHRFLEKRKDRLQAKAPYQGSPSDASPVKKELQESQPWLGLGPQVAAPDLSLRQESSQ

A further assay deals with T9, OsJAZ9 (rice) (UniProt Q8GSI0).
T9 sequence: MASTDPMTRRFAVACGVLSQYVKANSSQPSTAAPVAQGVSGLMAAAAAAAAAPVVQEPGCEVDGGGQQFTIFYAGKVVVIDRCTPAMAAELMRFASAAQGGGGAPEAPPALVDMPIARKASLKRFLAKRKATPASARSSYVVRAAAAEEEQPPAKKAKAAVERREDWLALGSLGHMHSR

B1: OsJAZ1 (protein, UniProt Q7XPM8 1-216)
chain: T3 sequence
On to B1, for which the binding entry with OsJAZ4 (rice), with OsJAZ12 (rice), with OsJAZ1 (rice), in the assay with OsJAZ3 (rice), with OsJAZ5 (rice) and in the assay with OsJAZ8 (rice) was “no binding” in each case. For the same molecule, in the assay with OsJAZ7 (rice), the binding entry was “no binding”.

B2: OsJAZ12 (protein, UniProt Q7XEZ1 1-171)
chain: T2 sequence
Take B2: the binding result with OsJAZ6 (rice), with OsJAZ12 (rice), with OsJAZ1 (rice), in the assay with OsJAZ3 (rice), with OsJAZ5 (rice) and in the assay with OsJAZ9 (rice) was “no binding” in each case.

B3: OsJAZ5 (protein, UniProt Q7XV97 1-188)
chain: T5 sequence
In the case of B3, the binding result with OsJAZ4 (rice), with OsJAZ12 (rice), with OsJAZ1 (rice), in the assay with OsJAZ3 (rice), with OsJAZ5 (rice) and with OsJAZ8 (rice) was “no binding” each time. In addition, the binding result with OsJAZ9 (rice) is given as “no binding”.

B4: OsJAZ9 (protein, UniProt Q8GSI0 1-179)
chain: T9 sequence
Regarding B4, the binding entry with OsJAZ4 (rice) was “binds”; in the assay with OsJAZ12 (rice), “no binding”; with OsJAZ3 (rice) it was “no binding”; with OsJAZ5 (rice) it was “no binding”; with OsJAZ8 (rice) it was “no binding”; in the assay with OsJAZ9 (rice), “binds”.

B5: OsJAZ7 (protein, UniProt Q8H395 1-244)
chain: T7 sequence
For the molecule B5, the binding result with OsJAZ4 (rice) is “no binding”; with OsJAZ1 (rice), “no binding”; with OsJAZ3 (rice) it was “no binding”; with OsJAZ7 (rice), “binds”.

B6: OsJAZ6 (protein, UniProt Q84R94 1-228)
chain: T8 sequence
In the case of B6, the binding entry with OsJAZ4 (rice), with OsJAZ6 (rice), with OsJAZ12 (rice), with OsJAZ3 (rice) and in the assay with OsJAZ8 (rice) was “no binding” each time.

B7: OsJAZ8 (protein, UniProt Q69P94 1-232)
chain: T6 sequence
As for B7, the binding result with OsJAZ4 (rice), with OsJAZ6 (rice), with OsJAZ1 (rice), with OsJAZ3 (rice), with OsJAZ5 (rice) and in the assay with OsJAZ8 (rice) was “no binding” each time. For the same molecule, in the assay with OsJAZ9 (rice), the binding result is recorded as “no binding”.
